Reference: patent publication EP4803098A1, “GIPR BLOCKING TYPE ANTIBODY AND ANTIBODY CONJUGATE THEREOF” (Shandong Boan Biotechnology Co., Ltd., priority 2023, dated 2025)

B1: CE947: GIPR blocking type antibody, IgG1, from phage library Q1; CDRs SEQ ID NO: 11-16 (antibody)
heavy: EVQLVQSGAEVKKPGSSVKVSCKASGGTFNNYAISWVRQAPGQGLEWMGRIIPFLDIASNAQKFQGKVTITADKSTSTAYMELSSLRSEDTAVYYCAREVDWGWFDSWGQGTLVTVSSASTKGPSVFPLAPSSKSTSGGTAALGCLVKDYFPEPVTVSWNSGALTSGVHTFPAVLQSSGLYSLSSVVTVPSSSLGTQTYICNVNHKPSNTKVDKKV[human IgG1 Fc with changes omitted here]
light: DIQMTQSPSSLSASVGDRVTITCRASQGISNYLAWFQQKPGKAPKSLIYAASSLQSGVPSRFSGSGSGTDFTLTISNLQPEDFATYYCLQYYDYPLTFGGGTKLEIKRTVAAPSVFIFPPSDEQLKSGTASVVCLLNNFYPREAKVQWKVDNALQSGNSQESVTEQDSKDSTYSLSSTLTLSKADYEKHKVYACEVTHQGLSSPVTKSFNRGEC
B2: BA191: GIPR blocking type antibody, IgG1, from phage library Q3; CDRs SEQ ID NO: 3-8 (antibody)
heavy: EVQLVQSGAEVKKPGSSVKVSCKASGGTFSTFSSYAISWVRQAPGQGLEWMGRIIPILGIGNNAQKFQGRVTITADKSTSTAYMELSSLRSEDTAVYYCAREKDWGHFDYWGQGTLVTVSSASTKGPSVFPLAPSSKSTSGGTAALGCLVKDYFPEPVTVSWNSGALTSGVHTFPAVLQSSGLYSLSSVVTVPSSSLGTQTYICNVNHKPSNTKVDKKV[human IgG1 Fc with changes omitted here]
light: B1 light with R61K, N77S, L89Q, Y92N, D93S, L96I, G100Q, K103R
B3: CE560: GIPR blocking type antibody from phage library Q1; CDRs SEQ ID NO: 48-53 (antibody)
heavy: EVQLVQSGAEVKKPGSSVKVSCKASGGTFNNYAISWVRQAPGQGLEWMGRIIPFLDIASYAQKFQGKVTITADKSTSTAYMELSSLRSEDTAVYYCAREVDWGWFDSWGQGTLVTVSSASTKGPSVFPLAPSSKSTSGGTAALGCLVKDYFPEPVTVSWNSGALTSGVHTFPAVLQSSGLYSLSSVVTVPSSSLGTQTYICNVNHKPSNTKVDKKV[human IgG1 Fc with changes omitted here]
light: IQMTQSPSSLSASVGDRVTITCRASQGISSYLAWYQQKPGKAPKLLIYAASTLQSGVPSRFSGSGSGTDFTLTISSLQPEDFATYYCQQLNSYPLTFGGGTKVEIKRTVAAPSVFIFPPSDEQLKSGTASVVCLLNNFYPREAKVQWKVDNALQSGNSQESVTEQDSKDSTYSLSSTLTLSKADYEKHKVYACEVTHQGLSSPVTKSFNRGEC
B4: CA360: GIPR blocking type antibody from phage library Q2; CDRs SEQ ID NO: 40-45 (antibody)
heavy: EVQLVQSGAEVKKPGSSVKVSCKASGGTFSGYPINWVRQAPGQGLEWMGRIIPIPGIPNYAQKFQDRVTITADKFANTAYMELSSLRSEDTAVYYCARDPLGPYVFDIWGQGTMVTVSSASTKGPSVFPLAPSSKSTSGGTAALGCLVKDYFPEPVTVSWNSGALTSGVHTFPAVLQSSGLYSLSSVVTVPSSSLGTQTYICNVNHKPSNTKVDKKV[human IgG1 Fc with changes omitted here]
light: DIVMTQSPATLSVSPGERATLSCRASQSVSSNLAWYQQKPGQAPRLLIYGASTRATGIPARFSGSGSGTEFTLTISSLQSEDFAVYYCQQYNNWPLTFGGGTKVEIKRTVAAPSVFIFPPSDEQLKSGTASVVCLLNNFYPREAKVQWKVDNALQSGNSQESVTEQDSKDSTYSLSSTLTLSKADYEKHKVYACEVTHQGLSSPVTKSFNRGEC

Assay: Aggregation risk of conjugate products stored at 4 °C (supernatant protein, OD280)
Format: physicochemical
Details: antibody conjugated to L1-P1
Method: CE947, BA191, CE560, and CA360 were conjugated to L1-P1 to obtain antibody-polypeptide conjugates. The conjugate products were stored at 4 °C for 3 days and observed for precipitate formation. After centrifugation, the protein content in the supernatant before and after storage was detected (OD280 was measured), and the reduction proportion of the conjugate products was calculated. […] Table 13. Reduction proportion of supernatant protein after 3 days of conjugate product storage at 4 °C

Molecule	Reduction proportion of supernatant protein after 3 days of storage at 4 °C [%]
B1	18
B2	42
B3	1
B4	0

Residue numbers refer to the chain shown, from its start.
